Results published in publication PMC12284681.
Where a chain is given by its changes, count along the chain named. These are yes or no findings as the source states them, for the method shown. In cells and extracts the contact can be indirect. Some entries that bind do so weakly or less than the wild type. For some assays here: Sequences can lack the tags named with a protein. Blank lines part the entries; values can stand above or below the substance they belong to.

By UniProt entry, the sequences of proteins in these tests, tags left out.
UniProt P05412: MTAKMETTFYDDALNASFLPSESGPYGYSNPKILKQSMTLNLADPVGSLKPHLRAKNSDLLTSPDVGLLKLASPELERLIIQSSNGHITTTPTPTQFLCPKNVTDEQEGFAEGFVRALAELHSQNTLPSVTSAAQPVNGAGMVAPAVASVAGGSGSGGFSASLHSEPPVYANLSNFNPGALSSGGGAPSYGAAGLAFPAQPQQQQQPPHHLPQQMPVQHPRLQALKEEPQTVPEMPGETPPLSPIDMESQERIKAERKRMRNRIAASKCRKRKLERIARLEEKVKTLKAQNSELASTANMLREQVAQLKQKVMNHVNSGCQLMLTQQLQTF
UniProt Q13177: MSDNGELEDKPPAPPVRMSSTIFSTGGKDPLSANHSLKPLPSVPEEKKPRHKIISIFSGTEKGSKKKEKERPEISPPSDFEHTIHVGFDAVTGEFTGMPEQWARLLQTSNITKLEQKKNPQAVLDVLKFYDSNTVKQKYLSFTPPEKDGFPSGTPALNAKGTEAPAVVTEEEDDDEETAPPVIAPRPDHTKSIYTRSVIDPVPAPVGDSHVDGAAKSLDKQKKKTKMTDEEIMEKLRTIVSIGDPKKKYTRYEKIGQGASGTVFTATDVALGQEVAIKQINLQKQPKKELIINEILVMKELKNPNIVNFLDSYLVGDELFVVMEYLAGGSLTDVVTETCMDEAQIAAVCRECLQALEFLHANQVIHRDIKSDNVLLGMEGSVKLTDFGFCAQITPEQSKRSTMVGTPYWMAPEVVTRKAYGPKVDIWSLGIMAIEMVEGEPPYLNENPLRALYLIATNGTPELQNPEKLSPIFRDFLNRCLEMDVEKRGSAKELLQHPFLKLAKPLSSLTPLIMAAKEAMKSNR
UniProt P01100: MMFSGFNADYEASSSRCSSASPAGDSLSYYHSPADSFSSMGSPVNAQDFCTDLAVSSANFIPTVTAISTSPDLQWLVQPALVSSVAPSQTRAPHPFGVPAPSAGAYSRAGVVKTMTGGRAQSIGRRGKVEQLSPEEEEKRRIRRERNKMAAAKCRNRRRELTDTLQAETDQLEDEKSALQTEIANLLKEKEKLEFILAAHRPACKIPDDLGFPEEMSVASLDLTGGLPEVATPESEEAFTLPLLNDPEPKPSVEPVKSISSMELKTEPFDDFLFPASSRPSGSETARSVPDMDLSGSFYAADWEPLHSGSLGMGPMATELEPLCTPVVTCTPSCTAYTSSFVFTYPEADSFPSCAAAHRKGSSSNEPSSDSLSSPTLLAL

What was measured:
Flag-ALDOA D129V (human) = molecular target: T1, Flag-ALDOA D129V (human) (UniProt P04075); assay: co-IP; HEK293T cells transiently transfected with Flag-ALDOA and/or Myc-c-Jun (WT or mutants); anti-FLAG or anti-MYC on protein A/G sepharose, 4 °C overnight; western blot
T1 sequence: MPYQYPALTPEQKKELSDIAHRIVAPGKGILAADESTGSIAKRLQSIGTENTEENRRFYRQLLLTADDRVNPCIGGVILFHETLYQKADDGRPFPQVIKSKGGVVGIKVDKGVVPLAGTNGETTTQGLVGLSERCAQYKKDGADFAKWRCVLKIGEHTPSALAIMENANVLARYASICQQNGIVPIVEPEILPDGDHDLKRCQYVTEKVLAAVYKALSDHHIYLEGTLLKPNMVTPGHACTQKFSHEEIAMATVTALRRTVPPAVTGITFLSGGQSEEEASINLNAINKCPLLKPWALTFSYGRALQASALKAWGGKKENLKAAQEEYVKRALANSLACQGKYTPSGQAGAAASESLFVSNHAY

Flag-ALDOA K42N (human) = molecular target: T2, Flag-ALDOA K42N (human) (UniProt P04075); assay: as above
T2 sequence: T1 sequence with K42N, V129D

Flag-ALDOA Y364S (human) = molecular target: T3, Flag-ALDOA Y364S (human) (UniProt P04075); assay: as above
T3 sequence: T1 sequence with V129D, Y364S

Flag-ALDOA K230A (human) = molecular target: T4, Flag-ALDOA K230A (human) (UniProt P04075); assay: as above
T4 sequence: T1 sequence with V129D, K230A

Flag-ALDOA E35D (human) = molecular target: T5, Flag-ALDOA E35D (human) (UniProt P04075); assay: as above
T5 sequence: T1 sequence with E35D, V129D

[1] = molecular target: T6, Flag-ALDOA, wild type (human) (UniProt P04075); assay: as above
T6 sequence: T1 sequence with V129D

[2] = molecular target: T7, Aldolase A (ALDOA), endogenous (human (endogenous in HCCLM3, HepG2 and THLE2)) (UniProt P04075); assay: co-IP; endogenous proteins in HCCLM3 and HepG2 cell lysates; anti-ALDOA or anti-c-Jun (or control IgG) on protein A/G sepharose, 4 °C overnight; western blot
T7 sequence: T1 sequence with V129D

[3] = molecular target: c-Jun, endogenous (human (endogenous in HCCLM3, HepG2 and THLE2)) (UniProt P05412); assay: as above
[4] = molecular target: T7, Aldolase A (ALDOA), endogenous (human (endogenous in HCCLM3, HepG2 and THLE2)); assay: proximity ligation; Duolink PLA on fixed, permeabilised THLE2 and HCCLM3 cells; endogenous ALDOA and c-Jun; confocal microscopy, spots counted

binding (Flag-ALDOA D129V (human)): binds
binding (Flag-ALDOA K42N (human)): binds
binding (Flag-ALDOA Y364S (human)): no binding
binding (Flag-ALDOA K230A (human)): binds
binding (Flag-ALDOA E35D (human)): binds
binding [1]: binds
Substance: Myc-c-Jun, wild type (from UniProt P05412 1-331)

binding [2]: binds
binding [3]: binds
Substance: P21-activated kinase 2 (PAK2), endogenous (from UniProt Q13177 1-524) (enzyme)

binding [2]: no binding
Substance: c-Fos, endogenous (from UniProt P01100 1-380)

binding [4]: binds
binding [2]: binds
Substance: c-Jun, endogenous (from UniProt P05412 1-331)
